Assay results: the supplement of paper PMC4604168 (melanoma cell lines)
The list shows a part of the results. Many values rest on one well or one pass, so single values are uncertain.

Tested on: SkMel28
Assay: cell count relative to DMSO control; melanoma cells; higher = more viable cells
Conditions: library dose: low library concentration; 72 h
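Also: cell number obtained by counting DAPI-stained nuclei in high-throughput microscope images with image analysis software, screen run in 1,536-well plates.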

| Compound | cell count [%] |
| --- | --- |
| Nc1ncn([C@H]2C[C@H](O)[C@@H](CO)O2)c(=O)n1 [decitabine] + Cn1cncc1[C@@](N)(c1ccc(Cl)cc1)c1ccc2c(c1)c(-c1cccc(Cl)c1)cc(=O)n2C [tipifarnib] (first compound 0.1 µM, partner dose 0.01 µM) | 69.3 |
| CO[C@H]1C[C@@H]2CC[C@@H](C)[C@@](O)(O2)C(=O)C(=O)N2CCCC[C@H]2C(=O)O[C@H]([C@H](C)C[C@@H]2CC[C@@H](OCCO)[C@H](OC)C2)CC(=O)[C@H](C)/C=C(\C)[C@@H](O)[C@@H](OC)C(=O)[C@H](C)C[C@H](C)/C=C/C=C/C=C/1C [everolimus] + Nc1ccn([C@@H]2O[C@H](CO)[C@@H](O)C2(F)F)c(=O)n1 [gemcitabine] (first compound 0.02 µM, partner dose 0.0004 µM) | 55.1 |
| CC(=O)O[C@@]12CO[C@@H]1C[C@H](O)[C@@]1(C)C(=O)[C@H](O)C3=C(C)[C@@H](OC(=O)[C@H](O)[C@@H](NC(=O)OC(C)(C)C)c4ccccc4)C[C@@](O)([C@@H](OC(=O)c4ccccc4)[C@H]21)C3(C)C [Docetaxel] + COc1cc2ncnc(Nc3ccc(Oc4ccccc4)cc3)c2cc1OC [SrcI1] (first compound 0.0001 µM, partner dose 2 µM) | 32.5 |
| CO[C@H]1C[C@@H]2CC[C@@H](C)[C@@](O)(O2)C(=O)C(=O)N2CCCC[C@H]2C(=O)O[C@H]([C@H](C)C[C@@H]2CC[C@@H](OCCO)[C@H](OC)C2)CC(=O)[C@H](C)/C=C(\C)[C@@H](O)[C@@H](OC)C(=O)[C@H](C)C[C@H](C)/C=C/C=C/C=C/1C [everolimus] + CC(C)CCN1c2nc(Nc3cc(F)c(O)c(F)c3)ncc2N(C)C(=O)C1C [BID1870] (first compound 0.02 µM, partner dose 0.2 µM) | 59.2 |
| CO[C@H]1C[C@@H]2CC[C@@H](C)[C@@](O)(O2)C(=O)C(=O)N2CCCC[C@H]2C(=O)O[C@H]([C@H](C)C[C@@H]2CC[C@@H](OCCO)[C@H](OC)C2)CC(=O)[C@H](C)/C=C(\C)[C@@H](O)[C@@H](OC)C(=O)[C@H](C)C[C@H](C)/C=C/C=C/C=C/1C [everolimus] + Nc1cccc2c1CN(C1CCC(=O)NC1=O)C2=O [lenalidomide] (first compound 0.02 µM, partner dose 1 µM) | 56.2 |
| CO[C@H]1C[C@@H]2CC[C@@H](C)[C@@](O)(O2)C(=O)C(=O)N2CCCC[C@H]2C(=O)O[C@H]([C@H](C)C[C@@H]2CC[C@@H](OCCO)[C@H](OC)C2)CC(=O)[C@H](C)/C=C(\C)[C@@H](O)[C@@H](OC)C(=O)[C@H](C)C[C@H](C)/C=C/C=C/C=C/1C [everolimus] + CS(=O)(=O)CCNCc1ccc(-c2ccc3ncnc(Nc4ccc(OCc5cccc(F)c5)c(Cl)c4)c3c2)o1 [lapatinib] (first compound 0.02 µM, partner dose 0.8 µM) | 44.1 |
| CO[C@H]1C[C@@H]2CC[C@@H](C)[C@@](O)(O2)C(=O)C(=O)N2CCCC[C@H]2C(=O)O[C@H]([C@H](C)C[C@@H]2CC[C@@H](OCCO)[C@H](OC)C2)CC(=O)[C@H](C)/C=C(\C)[C@@H](O)[C@@H](OC)C(=O)[C@H](C)C[C@H](C)/C=C/C=C/C=C/1C [everolimus] + O=C(O)c1ccc2c(c1)nc(Nc1cccc(Cl)c1)c1ccncc12 [CX4945] (first compound 0.02 µM, partner dose 0.4 µM) | 63.7 |
| CO[C@H]1C[C@@H]2CC[C@@H](C)[C@@](O)(O2)C(=O)C(=O)N2CCCC[C@H]2C(=O)O[C@H]([C@H](C)C[C@@H]2CC[C@@H](OCCO)[C@H](OC)C2)CC(=O)[C@H](C)/C=C(\C)[C@@H](O)[C@@H](OC)C(=O)[C@H](C)C[C@H](C)/C=C/C=C/C=C/1C [everolimus] + Clc1ccc(Nc2nnc(Cc3ccncc3)c3ccccc23)cc1 [vatalanib] (first compound 0.02 µM, partner dose 2 µM) | 54.4 |
| CC(=O)c1c(C)c2cnc(Nc3ccc(N4CCNCC4)cn3)nc2n(C2CCCC2)c1=O [palbociclib] + COc1cc(Nc2ncc(F)c(Nc3ccc4c(n3)NC(=O)C(C)(C)O4)n2)cc(OC)c1OC [Tamatinib] (first compound 0.04 µM, partner dose 0.4 µM) | 66.1 |
| CO[C@H]1C[C@@H]2CC[C@@H](C)[C@@](O)(O2)C(=O)C(=O)N2CCCC[C@H]2C(=O)O[C@H]([C@H](C)C[C@@H]2CC[C@@H](OCCO)[C@H](OC)C2)CC(=O)[C@H](C)/C=C(\C)[C@@H](O)[C@@H](OC)C(=O)[C@H](C)C[C@H](C)/C=C/C=C/C=C/1C [everolimus] + CNC(=O)c1cc(Oc2ccc(NC(=O)Nc3ccc(Cl)c(C(F)(F)F)c3)cc2)ccn1 [sorafenib] (first compound 0.02 µM, partner dose 0.4 µM) | 47.2 |
| CO[C@H]1C[C@@H]2CC[C@@H](C)[C@@](O)(O2)C(=O)C(=O)N2CCCC[C@H]2C(=O)O[C@H]([C@H](C)C[C@@H]2CC[C@@H](OCCO)[C@H](OC)C2)CC(=O)[C@H](C)/C=C(\C)[C@@H](O)[C@@H](OC)C(=O)[C@H](C)C[C@H](C)/C=C/C=C/C=C/1C [everolimus] + Cn1nnc2c(C(N)=O)ncn2c1=O [temozolomide] (first compound 0.02 µM, partner dose 2 µM) | 67.8 |
| CO[C@H]1C[C@@H]2CC[C@@H](C)[C@@](O)(O2)C(=O)C(=O)N2CCCC[C@H]2C(=O)O[C@H]([C@H](C)C[C@@H]2CC[C@@H](OCCO)[C@H](OC)C2)CC(=O)[C@H](C)/C=C(\C)[C@@H](O)[C@@H](OC)C(=O)[C@H](C)C[C@H](C)/C=C/C=C/C=C/1C [everolimus] + Cc1ccc(NC(=O)c2cccc(N(C)C)c2)cc1NC(=O)c1ccc(O)cc1 [ZM336372] (first compound 0.02 µM, partner dose 2 µM) | 55.2 |
| CC(=O)c1c(C)c2cnc(Nc3ccc(N4CCNCC4)cn3)nc2n(C2CCCC2)c1=O [palbociclib] + COc1ccc(COc2ccc(Cc3cnc(N)nc3N)cc2OC)cc1 [GW2580] (first compound 0.04 µM, partner dose 1 µM) | 75.8 |
| CO[C@H]1C[C@@H]2CC[C@@H](C)[C@@](O)(O2)C(=O)C(=O)N2CCCC[C@H]2C(=O)O[C@H]([C@H](C)C[C@@H]2CC[C@@H](OCCO)[C@H](OC)C2)CC(=O)[C@H](C)/C=C(\C)[C@@H](O)[C@@H](OC)C(=O)[C@H](C)C[C@H](C)/C=C/C=C/C=C/1C [everolimus] + CCc1ccc(CCOc2ccc(CC3SC(=O)NC3=O)cc2)nc1 [pioglitazone] (first compound 0.02 µM, partner dose 2 µM) | 65.6 |
| Nc1ncn([C@H]2C[C@H](O)[C@@H](CO)O2)c(=O)n1 [decitabine] + COc1ccc(COc2ccc(Cc3cnc(N)nc3N)cc2OC)cc1 [GW2580] (first compound 0.1 µM, partner dose 1 µM) | 87.5 |
| Nc1nc(F)nc2c1ncn2[C@@H]1O[C@H](CO)[C@@H](O)[C@@H]1O [fludarabine] + O=S(=O)(c1ccccc1)N(CC(F)(F)F)c1ccc(C(O)(C(F)(F)F)C(F)(F)F)cc1 [T0901317] (first compound 0.2 µM, partner dose 1.4 µM) | 72.2 |
| Nc1ncn([C@H]2C[C@H](O)[C@@H](CO)O2)c(=O)n1 [decitabine] + O=C(O)C(=O)Nc1sc2c(c1C(=O)O)CCNC2 [TCS401] (first compound 0.1 µM, partner dose 1.66667 µM) | 97 |
| CO[C@H]1C[C@@H]2CC[C@@H](C)[C@@](O)(O2)C(=O)C(=O)N2CCCC[C@H]2C(=O)O[C@H]([C@H](C)C[C@@H]2CC[C@@H](OCCO)[C@H](OC)C2)CC(=O)[C@H](C)/C=C(\C)[C@@H](O)[C@@H](OC)C(=O)[C@H](C)C[C@H](C)/C=C/C=C/C=C/1C [everolimus] + OCc1c[nH]c2ccccc12 [Indole-3-carbinol] (first compound 0.02 µM, partner dose 0.8 µM) | 61.3 |
